Laboratory results taken from the antibiotic and cytotoxicity screens of Wong et al. (2023).
The list shows a part of the results.

What was measured:
[1] = tested on: HSkMC (human skeletal muscle cells); experiment: cytotoxicity call (relative viability < 0.9); settings: 10 µM
[2] = tested on: HepG2; experiment: cytotoxicity call (relative viability < 0.9); settings: 10 µM
[3] = tested on: S. aureus RN4220; experiment: growth inhibition call (relative growth <= 0.2); settings: 50 µM

Compound | cytotoxicity call [1] | cytotoxicity call [2] | growth inhibition call [3]
CC(=O)NN1Cc2ccccc2C1=N | inactive | inactive | inactive
Clc1nc(N2CCNCC2)c2[nH]cnc2n1 | inactive | inactive | inactive
Cc1ccc(OC(=O)N(C)C[C@H]2OCc3ccccc3-c3c(n(C)c4ccccc34)C(=O)N([C@H](C)CO)C[C@@H]2C)cc1 | active | active | inactive
NC(=O)CN1CCCC1=O | inactive | inactive | inactive
CCN1C[C@]2(C)CC[C@H](O)[C@@]34[C@@H]5C[C@H]6[C@H](O)[C@@H]5[C@](O)(C[C@@H]6OC)[C@](O)([C@@H](OC)[C@H]23)[C@@H]14 | inactive | inactive | inactive
N[C@@H](Cc1ccc(O)cc1)C(=O)NCC(=O)NCC(=O)O | inactive | inactive | inactive
N[C@@H](c1ccccc1)[C@H](O)c1ccccc1 | inactive | inactive | inactive
COc1ccc2c(c1OC)C(=O)OC2C1c2cc3c(cc2CCN1C)OCO3 (configuration not stated) | inactive | inactive | inactive
NC[C@@H](CC(=O)O)c1ccccc1 | inactive | inactive | inactive
COCCCNC(=O)[C@H]1N[C@H]2C[C@@H]1C[C@@H]2F | inactive | inactive | inactive
O=C(O)C[C@H]1CC[C@@H]2NC[C@H](O)COC[C@H]2O1 | inactive | inactive | inactive
CNCC(O)c1ccc(O)cc1 (configuration not stated) | inactive | inactive | inactive
c1cc2c(cc1CN1CCNCC1)OCO2 | inactive | inactive | inactive
NC1(c2ccccc2F)CCCC1 | inactive | inactive | inactive
CCO[C@H]1[C@H]2CC[C@@H]1NC2 | inactive | inactive | inactive
CC[N+]1(C)CCCC(OC(=O)C(O)(c2ccccc2)c2ccccc2)C1.[Br-] (configuration not stated) | inactive | inactive | inactive
NC(=O)c1cn([C@@H]2O[C@H](CO)[C@@H](O)[C@H]2O)c2ncnc(N)c12 | inactive | active | inactive
[N-]=[N+]=NCc1ccccc1C[C@]1(C(=O)N2CCCCC2)N=C(c2ccc(OCCCO)cc2)O[C@H]1c1ccccc1N=[N+]=[N-] | inactive | active | inactive
Nc1nc(N)nc(NC2CC2)n1 | inactive | inactive | inactive
Cl.NNCc1ccccc1 | inactive | inactive | inactive

Compound | cytotoxicity call [1] | cytotoxicity call [2] | growth inhibition call [3]
CCC(=O)CCCCC[C@@H]1NC(=O)[C@H]2CCCCN2C(=O)[C@H]([C@@H](C)CC)NC(=O)[C@H](Cc2cn(OC)c3ccccc23)NC1=O | active | active | inactive
CC(=CCn1c[n+](C)c2c(N)ncnc21)CCC1(C)C(C)CCC2(C)C(C)=CCCC21.[Cl-] (configuration not stated) | inactive | inactive | active
CCN1C(=O)/C(=C/c2ccc[nH]2)C(=O)NC1=S | inactive | inactive | inactive
C[C@H](N)[C@H](O)c1ccc(O)c(O)c1 | inactive | inactive | inactive
CC(=O)N[C@@H]1CCSC1=O | inactive | inactive | inactive
NC[C@@H](O)c1ccc(Br)cc1 | inactive | inactive | inactive
CN1CCOC[C@]2(CCCNC2)C1 | inactive | inactive | inactive
O=C1NC(=S)NC(=O)C1=Cc1ccccc1 | inactive | inactive | inactive
O[C@H]1[C@H](O)[C@@H](O)CO[C@H]1NCCc1ccccc1 | inactive | inactive | inactive
Oc1cc(Cl)ccc1Oc1ccc(Cl)cc1Cl | inactive | inactive | active
CC[C@@H](C)C(=O)O[C@@H]1C[C@@]2(C)[C@H](c3ccoc3)OC(=O)C[C@]23O[C@@]2(C)O[C@]34[C@H](OC(=O)C(C)C)[C@@]3(O)[C@@H](OC(=O)[C@@]5(C)O[C@@H]5C)[C@@]5(C)C[C@]3(O)[C@@](C)([C@H]5CC(=O)OC)[C@@]14O2 | inactive | inactive | inactive
CCN(Cc1ccc(Cl)nc1)C(=C[N+](=O)[O-])NC | inactive | inactive | inactive
Nc1ccc2c(c1)CNCC2 | inactive | inactive | inactive
c1ccc(N2CCNCC2)nc1 | inactive | inactive | inactive
O=C(NCc1ccccn1)[C@]12CNC[C@H]1COC2 | inactive | inactive | inactive
NCCc1ccc(O)cc1 | inactive | inactive | inactive
O=c1[n-]c(=O)n(Cl)c(=O)n1Cl.[Na+] | inactive | inactive | inactive
CS(=O)(=O)N1CCO[C@]2(COCCN(Cc3ccncc3)C2)C1 | inactive | inactive | inactive
O=C(O)CC[C@@H](CP(=O)(O)O)C(=O)O | inactive | inactive | inactive
